This passage reports cell count results from the supplement of paper PMC4604168 (melanoma cell lines).

Some of the results follow. Single values are uncertain, as repeats are few or missing.
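Further: cells treated in 1,536-well plates, then fixed and DAPI-stained, with nuclei counted from automated high-throughput microscope images.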

The test concerns A101D. As to the kind of experiment: cell count relative to DMSO control; melanoma cells; higher = more viable cells. The settings on record: library dose: standard library concentration; 72 h.
The molecule `O=C(O)[C@@H]1[O][Sb](=[O])([O][Sb]2(=[O])[O][C@H]([C@H](O)CO)[C@H](O)[C@H](C(=O)O)[O]2)[O][C@H]([C@H](O)CO)[C@@H]1O` (stereo not given in full) [stibogluconate] + O=S(=O)(c1ccccc1)N(CC(F)(F)F)c1ccc(C(O)(C(F)(F)F)C(F)(F)F)cc1 [T0901317] (first compound 10 µM, partner dose 7 µM) gave a cell count of 94.7%.

In turn, `O=C(O)c1ccc2c(c1)nc(Nc1cccc(Cl)c1)c1ccncc12` + C[C@]1(c2nc3c(C(N)=O)cccc3[nH]2)CCCN1 [Veliparib] (first compound 2 µM, partner dose 7 µM) returned a cell count of 82.2%.

With `O=C(O)c1ccc2c(c1)nc(Nc1cccc(Cl)c1)c1ccncc12` + O=C(O)c1ccc(-c2c[nH]c3ncc(-c4ccccc4)cc23)cc1C1CCCC1 [GSK650394] (first compound 2 µM, partner dose 0.8 µM), the cell count came out at 77.1%.

The molecule `O=C(Nc1cc(C(F)(F)F)cc(C(F)(F)F)c1)c1cc(Cl)ccc1O` + CCCCCCCCc1ccc(CCC(N)(CO)CO)cc1 [fingolimod] (first compound 0.08 µM, partner dose 10 µM) showed a cell count of 7.29%.

On to `O=C(Nc1cc(C(F)(F)F)cc(C(F)(F)F)c1)c1cc(Cl)ccc1O` + C=C(c1ccc(C(=O)O)cc1)c1cc2c(cc1C)C(C)(C)CCC2(C)C [Bexarotene] (first compound 0.08 µM, partner dose 10 µM), for which the cell count was determined as 85.2%.

`O=C(Nc1cc(C(F)(F)F)cc(C(F)(F)F)c1)c1cc(Cl)ccc1O` + CC(C)C[C@H](NC(=O)[C@H](Cc1ccccc1)NC(=O)c1cnccn1)B(O)O [Bortezomib] (first compound 0.08 µM, partner dose 0.005 µM) came in with a cell count of 12.1%.

For the molecule `O=C(O)[C@@H]1[O][Sb](=[O])([O][Sb]2(=[O])[O][C@H]([C@H](O)CO)[C@H](O)[C@H](C(=O)O)[O]2)[O][C@H]([C@H](O)CO)[C@@H]1O` (stereo not given in full) [stibogluconate] + COc1cc2c(Oc3ccc4[nH]c(C)cc4c3F)ncnc2cc1OCCCN1CCCC1 [cediranib] (first compound 10 µM, partner dose 2 µM), the cell count is 78.2%.

`O=C(Nc1cc(C(F)(F)F)cc(C(F)(F)F)c1)c1cc(Cl)ccc1O` + CC1(C)NC(=O)N(c2ccc([N+](=O)[O-])c(C(F)(F)F)c2)C1=O [nilutamide] (first compound 0.08 µM, partner dose 5 µM) showed a cell count of 92.3%.

In turn, `O=C(Nc1cc(C(F)(F)F)cc(C(F)(F)F)c1)c1cc(Cl)ccc1O` + C[C@]1(O)C[C@@H](c2nc(-c3ccc4ccc(-c5ccccc5)nc4c3)c3c(N)nccn32)C1 [OSI906] (first compound 0.08 µM, partner dose 2 µM) returned a cell count of 95%.

Molecule `Cn1nnc2c(C(N)=O)ncn2c1=O` [temozolomide] + CC1(C)NC(=O)N(c2ccc([N+](=O)[O-])c(C(F)(F)F)c2)C1=O [nilutamide] (first compound 10 µM, partner dose 5 µM) returned a cell count of 69.7%.

On to `O=C(O)[C@@H]1[O][Sb](=[O])([O][Sb]2(=[O])[O][C@H]([C@H](O)CO)[C@H](O)[C@H](C(=O)O)[O]2)[O][C@H]([C@H](O)CO)[C@@H]1O` (stereo not given in full) [stibogluconate] + COc1cc2ncnc(Nc3ccc(Oc4ccccc4)cc3)c2cc1OC [SrcI1] (first compound 10 µM, partner dose 10 µM), for which the cell count worked out at 101%.

Regarding `O=C(Nc1cc(C(F)(F)F)cc(C(F)(F)F)c1)c1cc(Cl)ccc1O` + CN1CCN(c2ccc3nc(-c4c(N)c5c(F)cccc5[nH]c4=O)[nH]c3c2)CC1 [Dovitinib] (first compound 0.08 µM, partner dose 0.5 µM), the cell count worked out at 59%.

`O=C(O)[C@@H]1[O][Sb](=[O])([O][Sb]2(=[O])[O][C@H]([C@H](O)CO)[C@H](O)[C@H](C(=O)O)[O]2)[O][C@H]([C@H](O)CO)[C@@H]1O` (stereo not given in full) [stibogluconate] + Cc1ccc(NC(=O)c2cccc(N(C)C)c2)cc1NC(=O)c1ccc(O)cc1 [ZM336372] (first compound 10 µM, partner dose 10 µM) displayed a cell count of 83%.

Molecule `O=C(O)c1ccc2c(c1)nc(Nc1cccc(Cl)c1)c1ccncc12` + C#Cc1cccc(Nc2ncnc3cc(OCCOC)c(OCCOC)cc23)c1 [erlotinib] (first compound 2 µM, partner dose 4 µM) showed a cell count of 55.1%.

As to `Cc1cc(N2CCOCC2)cc2[nH]c(-c3c(NC[C@@H](O)c4cccc(Cl)c4)cc[nH]c3=O)nc12` + CN(C)S(=O)(=O)c1ccc2c(c1)/C(=C/c1cc3c([nH]1)CCCC3)C(=O)N2 [SU6656] (first compound 1 µM, partner dose 2 µM), the cell count was determined as 68.3%.

As for `O=C(Nc1cc(C(F)(F)F)cc(C(F)(F)F)c1)c1cc(Cl)ccc1O` + C[C@@H](N)c1ccc(C(=O)Nc2ccnc3[nH]ccc23)cc1 [RKI983] (first compound 0.08 µM, partner dose 2 µM), the cell count amounted to 74%.

Molecule `O=C(O)[C@@H]1[O][Sb](=[O])([O][Sb]2(=[O])[O][C@H]([C@H](O)CO)[C@H](O)[C@H](C(=O)O)[O]2)[O][C@H]([C@H](O)CO)[C@@H]1O` (stereo not given in full) [stibogluconate] + CC(=O)c1c(C)c2cnc(Nc3ccc(N4CCNCC4)cn3)nc2n(C2CCCC2)c1=O [palbociclib] (first compound 10 µM, partner dose 0.2 µM) displayed a cell count of 56.3%.

Regarding `O=C(Nc1cc(C(F)(F)F)cc(C(F)(F)F)c1)c1cc(Cl)ccc1O` + COc1cc2c(Oc3ccc4[nH]c(C)cc4c3F)ncnc2cc1OCCCN1CCCC1 [cediranib] (first compound 0.08 µM, partner dose 2 µM), the cell count was 80.4%.

For `Cn1nnc2c(C(N)=O)ncn2c1=O` [temozolomide] + OCCn1cc(-c2cnc3nnn(Cc4ccc5ncccc5c4)c3n2)cn1 [PF04217903] (first compound 10 µM, partner dose 5 µM), the cell count stood at 83.3%.

`O=C(O)[C@@H]1[O][Sb](=[O])([O][Sb]2(=[O])[O][C@H]([C@H](O)CO)[C@H](O)[C@H](C(=O)O)[O]2)[O][C@H]([C@H](O)CO)[C@@H]1O` (stereo not given in full) [stibogluconate] + CN(C)S(=O)(=O)c1ccc2c(c1)/C(=C/c1cc3c([nH]1)CCCC3)C(=O)N2 [SU6656] (first compound 10 µM, partner dose 2 µM) registered a cell count of 64.4%.

Regarding `O=C(O)[C@@H]1[O][Sb](=[O])([O][Sb]2(=[O])[O][C@H]([C@H](O)CO)[C@H](O)[C@H](C(=O)O)[O]2)[O][C@H]([C@H](O)CO)[C@@H]1O` (stereo not given in full) [stibogluconate] + C=CCn1c(=O)c2cnc(Nc3ccc(N4CCN(C)CC4)cc3)nc2n1-c1cccc(C(C)(C)O)n1 [MK1775] (first compound 10 µM, partner dose 0.1 µM), the cell count was 56.3%.

`O=C(Nc1cc(C(F)(F)F)cc(C(F)(F)F)c1)c1cc(Cl)ccc1O` + Cn1cnc2c(F)c(Nc3ccc(Br)cc3Cl)c(C(=O)NOCCO)cc21 [selumetinib] (first compound 0.08 µM, partner dose 0.075 µM) yielded a cell count of 60.2%.

`O=C(O)[C@@H]1[O][Sb](=[O])([O][Sb]2(=[O])[O][C@H]([C@H](O)CO)[C@H](O)[C@H](C(=O)O)[O]2)[O][C@H]([C@H](O)CO)[C@@H]1O` (stereo not given in full) [stibogluconate] + Cn1cncc1[C@@](N)(c1ccc(Cl)cc1)c1ccc2c(c1)c(-c1cccc(Cl)c1)cc(=O)n2C [tipifarnib] (first compound 10 µM, partner dose 0.05 µM) registered a cell count of 104%.

`O=C(Nc1cc(C(F)(F)F)cc(C(F)(F)F)c1)c1cc(Cl)ccc1O` + CC(=O)c1c(C)c2cnc(Nc3ccc(N4CCNCC4)cn3)nc2n(C2CCCC2)c1=O [palbociclib] (first compound 0.08 µM, partner dose 0.2 µM) showed a cell count of 68.4%.

As for `O=C(O)[C@@H]1[O][Sb](=[O])([O][Sb]2(=[O])[O][C@H]([C@H](O)CO)[C@H](O)[C@H](C(=O)O)[O]2)[O][C@H]([C@H](O)CO)[C@@H]1O` (stereo not given in full) [stibogluconate] + COCC[n+]1c2c(n(Cc3cnccn3)c1C)C(=O)c1ccccc1C2=O [YM155] (first compound 10 µM, partner dose 0.002 µM), the cell count is 74.8%.
